Experimental findings from patent US20140093592A1, “[…] THE TREATMENT OF TREATMENT-[…] TREATMENT-RESISTANT DEPRESSION” (Janssen Pharmaceutica NV, priority 2012, published 2014) are described below.

Where only a bound is given, the exact number is not on record here.

The subject of this assay is adult subjects with treatment-resistant depression (TRD). In words: Phase 2a clinical study of i.v. esketamine in TRD: MADRS total score. The following applies: for Diff. of LS Means (SE) minus placebo, change in MADRS total score: day 1 to day 2.

For `CN[C@]1(c2ccccc2Cl)CCCCC1=O.Cl` [Esketamine, (S)-2-(2-chlorophenyl)-2-(methylamino)cyclohexanone hydrochloride], the “MADRS total score, Mean (SD)” value (0.2 mg/kg i.v., Baseline (Day 1 Predose)) is given as 33.1 (3.55); the “MADRS total score, Mean (SD)” value (0.2 mg/kg i.v., Day 2) is on record as 16.3 (8.87); the “MADRS total score, Mean (SD)” value (0.4 mg/kg i.v., Baseline (Day 1 Predose)) is 33.7 (5.82); the “MADRS total score, Mean (SD)” value (0.4 mg/kg i.v., Day 2) was 15.9 (9.12). The “Diff. of LS Means (SE) minus placebo, change in MADRS total score” value runs as follows: (0.2 mg/kg i.v.) −12.9 (3.76); (0.4 mg/kg i.v.) −13.1 (3.64). Further, the “MADRS total score, Mean (SE)” value is on record as 20.44 (2.973) (0.20 mg/kg, Day 1 (2 Hour)); 16.00 (2.901) (0.20 mg/kg, Day 1 (4 Hour)); 16.33 (2.958) (0.20 mg/kg, Day 2); 16.78 (3.455) (0.20 mg/kg, Day 3); 18.89 (3.470) (0.20 mg/kg, Day 4 (Predose)); 14.91 (2.380) (0.40 mg/kg, Day 1 (2 Hour)). In addition, the “MADRS total score, Mean (SE)” value is 15.73 (2.461) (0.40 mg/kg, Day 1 (4 Hour)); 15.91 (2.748) (0.40 mg/kg, Day 2); 19.45 (3.326) (0.40 mg/kg, Day 3). For the same molecule, the “Onset of antidepressant effects (MADRS) after the infusion” value (both doses, earliest time point measured) was at most 2 h. The “Remitters (MADRS score less than or equal to 10)” value (day 7, 14 of 29 subjects, all doses) amounted to 48.3%.
